Laboratory results as given in the supplement of paper PMC4967469.
A lower IC50 marks a more sensitive line; a fit beyond the top or the lowest dose is shown as a bound at that dose. For AUC the same curve is integrated over the 256-fold range of doses and scaled to a fraction; values near 1 show little effect. For some assays here: The top dose, if marked as inferred, is not printed in the source and was worked back from the curve model.

How the values were obtained:
Experiment in all cases: Viability of human cancer cell lines after 72 h of drug (GDSC screen)
BMX-IN-1 (QL-XII-61) = compound: C=CC(=O)Nc1cc(-n2c(=O)ccc3cnc4ccc(-c5ccc(NS(C)(=O)=O)cc5)cc4c32)ccc1C [BMX-IN-1 (QL-XII-61)]; conditions: top dose 10 µM; top dose inferred
Description: (§1)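 Human cancer cell lines in 384-well plates, medium with 10% serum, drug for 72 h over a 256-fold dose range (nine 2-fold or five 4-fold steps up to the top dose). Adherent lines were fixed and stained with the nucleic acid dye Syto60, suspension lines read with resazurin; signal relative to control wells, capped at 0 and 100%. One two-parameter sigmoid per drug and line, fitted in a mixed model over all curves with the slope shared within a line.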

17-AAG = compound: C=CCNC1=C2C[C@@H](C)C[C@H](OC)[C@H](O)[C@@H](C)/C=C(\C)[C@H](OC(N)=O)[C@@H](OC)/C=C\C=C(/C)C(=O)NC(=CC1=O)C2=O [17-AAG]; conditions: top dose 1 µM
Description: as §1

CCT018159 = compound: CCc1cc(-c2n[nH]c(C)c2-c2ccc3c(c2)OCCO3)c(O)cc1O [CCT018159]; conditions: top dose 10 µM; top dose inferred
Description: as §1

BIX02189 = compound: CN(C)Cc1cccc(N=C(c2ccccc2)c2c(O)[nH]c3cc(C(=O)N(C)C)ccc23)c1 [BIX02189]; conditions: top dose 20 µM; top dose inferred
Description: as §1

Dimethyloxalylglycine = compound: COC(=O)CNC(=O)C(=O)OC [Dimethyloxalylglycine]; conditions: top dose 4000 µM; top dose inferred
Description: as §1

OSI-027 = compound: COc1cccc2cc(-c3nc([C@H]4CC[C@H](C(=O)O)CC4)n4ncnc(N)c34)[nH]c12 [OSI-027]; conditions: top dose 20 µM
Description: as §1

Vismodegib = compound: CS(=O)(=O)c1ccc(C(=O)Nc2ccc(Cl)c(-c3ccccn3)c2)c(Cl)c1 [Vismodegib]; conditions: top dose 10 µM; top dose inferred
Description: as §1

VX-11e = compound: Cc1cnc(Nc2ccc(F)cc2Cl)nc1-c1c[nH]c(C(=O)N[C@H](CO)c2cccc(Cl)c2)c1 [VX-11e]; conditions: top dose 5.12 µM; top dose inferred
Description: as §1

TG101348 = compound: Cc1cnc(Nc2ccc(OCCN3CCCC3)cc2)nc1Nc1cccc(S(=O)(=O)NC(C)(C)C)c1 [TG101348]; conditions: top dose 10.24 µM
Description: as §1

UNC1215 = compound: O=C(c1ccc(C(=O)N2CCC(N3CCCC3)CC2)c(Nc2ccccc2)c1)N1CCC(N2CCCC2)CC1 [UNC1215]; conditions: top dose 1 µM; top dose inferred
Description: as §1

| Cell Line | AUC (BMX-IN-1 (QL-XII-61)) | IC50 (BMX-IN-1 (QL-XII-61)) [µM] | AUC (17-AAG) | IC50 (17-AAG) [nM] | AUC (CCT018159) | IC50 (CCT018159) [µM] | AUC (BIX02189) | IC50 (BIX02189) [µM] | AUC (Dimethyloxalylglycine) | IC50 (Dimethyloxalylglycine) [mM] | AUC (OSI-027) | IC50 (OSI-027) [µM] | AUC (Vismodegib) | IC50 (Vismodegib) [µM] | AUC (VX-11e) | IC50 (VX-11e) [nM] | AUC (TG101348) | IC50 (TG101348) [µM] | AUC (UNC1215) | IC50 (UNC1215) [nM] |
| --- | --- | --- | --- | --- | --- | --- | --- | --- | --- | --- | --- | --- | --- | --- | --- | --- | --- | --- | --- | --- |
| NAMALWA (Burkitt lymphoma, suspension) | 0.963 | > 10 | 0.965 | > 1000 | 0.941 | > 10 | 0.917 | > 20 | 0.637 | 0.559 | 0.225 | 0.233 | 0.957 | > 10 | 0.899 | 4670 | 0.727 | 2.49 | 0.991 | > 1000 |
| NB1 (neuroblastoma, semi-adherent) | 0.96 | > 10 | 0.607 | 127 | 0.933 | > 10 | 0.963 | > 20 | 0.483 | 0.224 | 0.824 | 13.6 | 0.984 | > 10 | 0.897 | > 5120 | 0.763 | 4.04 | 0.982 | > 1000 |
| NB-4 (acute myeloid leukaemia, suspension) | 0.731 | 2.44 | 0.649 | 149 | 0.882 | 7.31 | 0.829 | 9.45 | 0.411 | 0.15 | 0.342 | 0.499 | 0.977 | > 10 | 0.51 | 339 | 0.417 | 0.395 | 0.986 | > 1000 |
| NCI-H82 (small cell lung carcinoma, suspension) | 0.971 | > 10 | 0.985 | > 1000 | 0.988 | > 10 | 0.974 | > 20 | 0.851 | 2.83 | 0.814 | 10.2 | 0.97 | > 10 | 0.989 | > 5120 | 0.942 | > 10.2 | 0.986 | > 1000 |
| NCI-H226 (lung squamous cell carcinoma, adherent) | 0.986 | > 10 | 0.893 | > 1000 | 0.965 | > 10 | 0.946 | > 20 | 0.846 | 3.15 | 0.741 | 6.35 | 0.987 | > 10 | 0.798 | 2580 | 0.812 | 5.83 | 0.986 | > 1000 |
| NCI-H630 (large intestine, adherent) | 0.976 | > 10 | 0.951 | > 1000 | 0.979 | > 10 | 0.962 | > 20 | 0.808 | 2.26 | 0.871 | > 20 | 0.974 | > 10 | 0.877 | > 5120 | 0.942 | > 10.2 | 0.986 | > 1000 |
| NCI-H747 (large intestine, adherent) | 0.961 | > 10 | 0.72 | 306 | 0.951 | > 10 | 0.881 | > 20 | 0.843 | 3.78 | 0.406 | 0.651 | 0.981 | > 10 | 0.709 | 1430 | 0.714 | 2.98 | 0.979 | > 1000 |
